Test results: publication PMC12820563
The list shows a part of the results. The list includes weakly bound sequences.

biological target: T1, MBP-FoxP3dN (UniProt Q99JB6); test: PD-seq (MBP pull-down with sequencing); settings: 20 mM Tris-HCl pH 7.5, 100 mM NaCl, 1.5 mM MgCl2, 0.4 uM protein, 0.1 uM dsDNA library, 30 min, room temperature, amylose pull-down; high values mean tight binding; double strand, one strand shown
T1 sequence: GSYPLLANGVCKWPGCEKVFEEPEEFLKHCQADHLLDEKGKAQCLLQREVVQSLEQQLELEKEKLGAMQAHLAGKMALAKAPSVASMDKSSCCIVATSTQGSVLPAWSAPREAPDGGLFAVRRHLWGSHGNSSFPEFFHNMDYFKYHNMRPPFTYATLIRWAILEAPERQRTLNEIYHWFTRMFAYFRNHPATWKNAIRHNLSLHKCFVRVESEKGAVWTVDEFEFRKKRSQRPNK

Sequence | binding signal (RPM ratio (pull-down/input))
GATGATTGTTCTCCCAGCTGATGAATTATGGGCCTCGAGTAAACAAATTTTCCTAATCTTTCTGTTCAAGCGCCATCTAC | 0.571
GATGATTGTTCTCCCAGCTGATGAATTTCGCAGTTCGAGTAAACAAATTTTCCTAATCTTTCTGTTCAAGCGCCATCTAC | 1.36
GATGATTGTTCTCCCAGCTGATGAATTCAGCCAATCGAGTAAACAAATTTTCCTAATCTTTCTGTTCAAGCGCCATCTAC | 0.533
GATGATTGTTCTCCCAGCTGATGAATTGTGATTGTCGAGTAAACAAATTTTCCTAATCTTTCTGTTCAAGCGCCATCTAC | 4.91
GATGATTGTTCTCCCAGCTGATGAATTCTCGGGTTCGAGTAAACAAATTTTCCTAATCTTTCTGTTCAAGCGCCATCTAC | 0.269
GATGATTGTTCTCCCAGCTGATGAATTTATATTTTCGAGTAAACAAATTTTCCTAATCTTTCTGTTCAAGCGCCATCTAC | 1.28
GATGATTGTTCTCCCAGCTGATGAATTATCGACCTCGAGTAAACAAATTTTCCTAATCTTTCTGTTCAAGCGCCATCTAC | 0.283
GATGATTGTTCTCCCAGCTGATGAATTGGAGTTGTCGAGTAAACAAATTTTCCTAATCTTTCTGTTCAAGCGCCATCTAC | 0.805
GATGATTGTTCTCCCAGCTGATGAATTTTCTATTTCGAGTAAACAAATTTTCCTAATCTTTCTGTTCAAGCGCCATCTAC | 0.261
GATGATTGTTCTCCCAGCTGATGAATTCCCGCCCTCGAGTAAACAAATTTTCCTAATCTTTCTGTTCAAGCGCCATCTAC | 0.46
GATGATTGTTCTCCCAGCTGATGAATTCTGTATATCGAGTAAACAAATTTTCCTAATCTTTCTGTTCAAGCGCCATCTAC | 5.72
GATGATTGTTCTCCCAGCTGATGAATTTCCGATGTCGAGTAAACAAATTTTCCTAATCTTTCTGTTCAAGCGCCATCTAC | 0.35
GATGATTGTTCTCCCAGCTGATGAATTCGGTATCTCGAGTAAACAAATTTTCCTAATCTTTCTGTTCAAGCGCCATCTAC | 3.08
GATGATTGTTCTCCCAGCTGATGAATTCCCGTTATCGAGTAAACAAATTTTCCTAATCTTTCTGTTCAAGCGCCATCTAC | 0.53
GATGATTGTTCTCCCAGCTGATGAATTGATTGACTCGAGTAAACAAATTTTCCTAATCTTTCTGTTCAAGCGCCATCTAC | 2.07
GATGATTGTTCTCCCAGCTGATGAATTGTATCGTTCGAGTAAACAAATTTTCCTAATCTTTCTGTTCAAGCGCCATCTAC | 1.84
GATGATTGTTCTCCCAGCTGATGAATTTCTGCGTTCGAGTAAACAAATTTTCCTAATCTTTCTGTTCAAGCGCCATCTAC | 1.57
GATGATTGTTCTCCCAGCTGATGAATTACGACGGTCGAGTAAACAAATTTTCCTAATCTTTCTGTTCAAGCGCCATCTAC | 0.331
GATGATTGTTCTCCCAGCTGATGAATTGACGGATTCGAGTAAACAAATTTTCCTAATCTTTCTGTTCAAGCGCCATCTAC | 0.323
GATGATTGTTCTCCCAGCTGATGAATTATCGCTTTCGAGTAAACAAATTTTCCTAATCTTTCTGTTCAAGCGCCATCTAC | 0.99
GATGATTGTTCTCCCAGCTGATGAATTGGGTTGGTCGAGTAAACAAATTTTCCTAATCTTTCTGTTCAAGCGCCATCTAC | 0.989

Sequence | binding signal (RPM ratio (pull-down/input))
GATGATTGTTCTCCCAGCTGATGAATTGACTTTCTCGAGTAAACAAATTTTCCTAATCTTTCTGTTCAAGCGCCATCTAC | 0.418
GATGATTGTTCTCCCAGCTGATGAATTGTGGCCGTCGAGTAAACAAATTTTCCTAATCTTTCTGTTCAAGCGCCATCTAC | 1.2
GATGATTGTTCTCCCAGCTGATGAATTCTGTACCTCGAGTAAACAAATTTTCCTAATCTTTCTGTTCAAGCGCCATCTAC | 1.31
GATGATTGTTCTCCCAGCTGATGAATTACTCAAATCGAGTAAACAAATTTTCCTAATCTTTCTGTTCAAGCGCCATCTAC | 0.262
GATGATTGTTCTCCCAGCTGATGAATTGTCCGCTTCGAGTAAACAAATTTTCCTAATCTTTCTGTTCAAGCGCCATCTAC | 0.3
GATGATTGTTCTCCCAGCTGATGAATTTACACAATCGAGTAAACAAATTTTCCTAATCTTTCTGTTCAAGCGCCATCTAC | 1.5
GATGATTGTTCTCCCAGCTGATGAATTCTTTGACTCGAGTAAACAAATTTTCCTAATCTTTCTGTTCAAGCGCCATCTAC | 0.216
GATGATTGTTCTCCCAGCTGATGAATTGGATAGGTCGAGTAAACAAATTTTCCTAATCTTTCTGTTCAAGCGCCATCTAC | 0.342
GATGATTGTTCTCCCAGCTGATGAATTCAAACGATCGAGTAAACAAATTTTCCTAATCTTTCTGTTCAAGCGCCATCTAC | 0.287
GATGATTGTTCTCCCAGCTGATGAATTCGGGGTCTCGAGTAAACAAATTTTCCTAATCTTTCTGTTCAAGCGCCATCTAC | 0.661
GATGATTGTTCTCCCAGCTGATGAATTGTTTGAATCGAGTAAACAAATTTTCCTAATCTTTCTGTTCAAGCGCCATCTAC | 1.05
GATGATTGTTCTCCCAGCTGATGAATTAGGGAGCTCGAGTAAACAAATTTTCCTAATCTTTCTGTTCAAGCGCCATCTAC | 0.24
GATGATTGTTCTCCCAGCTGATGAATTAGTTAACTCGAGTAAACAAATTTTCCTAATCTTTCTGTTCAAGCGCCATCTAC | 0.747
GATGATTGTTCTCCCAGCTGATGAATTATTCCCATCGAGTAAACAAATTTTCCTAATCTTTCTGTTCAAGCGCCATCTAC | 0.334
GATGATTGTTCTCCCAGCTGATGAATTCCGACTGTCGAGTAAACAAATTTTCCTAATCTTTCTGTTCAAGCGCCATCTAC | 0.952
GATGATTGTTCTCCCAGCTGATGAATTAAGTACCTCGAGTAAACAAATTTTCCTAATCTTTCTGTTCAAGCGCCATCTAC | 0.612
GATGATTGTTCTCCCAGCTGATGAATTTGTGGCATCGAGTAAACAAATTTTCCTAATCTTTCTGTTCAAGCGCCATCTAC | 3.35
GATGATTGTTCTCCCAGCTGATGAATTAGTGACATCGAGTAAACAAATTTTCCTAATCTTTCTGTTCAAGCGCCATCTAC | 0.993
GATGATTGTTCTCCCAGCTGATGAATTAATGGTTTCGAGTAAACAAATTTTCCTAATCTTTCTGTTCAAGCGCCATCTAC | 0.958
GATGATTGTTCTCCCAGCTGATGAATTTTCCCTCTCGAGTAAACAAATTTTCCTAATCTTTCTGTTCAAGCGCCATCTAC | 0.249
GATGATTGTTCTCCCAGCTGATGAATTCTTGCAATCGAGTAAACAAATTTTCCTAATCTTTCTGTTCAAGCGCCATCTAC | 2.8

Sequence | binding signal (RPM ratio (pull-down/input))
GATGATTGTTCTCCCAGCTGATGAATTGTATGATTCGAGTAAACAAATTTTCCTAATCTTTCTGTTCAAGCGCCATCTAC | 2.94
GATGATTGTTCTCCCAGCTGATGAATTTTATGCGTCGAGTAAACAAATTTTCCTAATCTTTCTGTTCAAGCGCCATCTAC | 0.925
GATGATTGTTCTCCCAGCTGATGAATTGCCCGGTTCGAGTAAACAAATTTTCCTAATCTTTCTGTTCAAGCGCCATCTAC | 0.427
GATGATTGTTCTCCCAGCTGATGAATTGGATACCTCGAGTAAACAAATTTTCCTAATCTTTCTGTTCAAGCGCCATCTAC | 0.525
GATGATTGTTCTCCCAGCTGATGAATTAACGCCCTCGAGTAAACAAATTTTCCTAATCTTTCTGTTCAAGCGCCATCTAC | 0.646
GATGATTGTTCTCCCAGCTGATGAATTGATGAAATCGAGTAAACAAATTTTCCTAATCTTTCTGTTCAAGCGCCATCTAC | 0.352
GATGATTGTTCTCCCAGCTGATGAATTACCTCGCTCGAGTAAACAAATTTTCCTAATCTTTCTGTTCAAGCGCCATCTAC | 0.307
GATGATTGTTCTCCCAGCTGATGAATTCTGAACGTCGAGTAAACAAATTTTCCTAATCTTTCTGTTCAAGCGCCATCTAC | 0.307
GATGATTGTTCTCCCAGCTGATGAATTGTCATCCTCGAGTAAACAAATTTTCCTAATCTTTCTGTTCAAGCGCCATCTAC | 0.941
GATGATTGTTCTCCCAGCTGATGAATTCCTCCTATCGAGTAAACAAATTTTCCTAATCTTTCTGTTCAAGCGCCATCTAC | 0.288
GATGATTGTTCTCCCAGCTGATGAATTTATGATGTCGAGTAAACAAATTTTCCTAATCTTTCTGTTCAAGCGCCATCTAC | 3.91
GATGATTGTTCTCCCAGCTGATGAATTAAGCATGTCGAGTAAACAAATTTTCCTAATCTTTCTGTTCAAGCGCCATCTAC | 5.08
GATGATTGTTCTCCCAGCTGATGAATTAGCAGTTTCGAGTAAACAAATTTTCCTAATCTTTCTGTTCAAGCGCCATCTAC | 0.603
GATGATTGTTCTCCCAGCTGATGAATTATAGGCATCGAGTAAACAAATTTTCCTAATCTTTCTGTTCAAGCGCCATCTAC | 0.944
GATGATTGTTCTCCCAGCTGATGAATTGTACAGATCGAGTAAACAAATTTTCCTAATCTTTCTGTTCAAGCGCCATCTAC | 0.319
GATGATTGTTCTCCCAGCTGATGAATTTGGTTGCTCGAGTAAACAAATTTTCCTAATCTTTCTGTTCAAGCGCCATCTAC | 2.96
GATGATTGTTCTCCCAGCTGATGAATTAGGGCATTCGAGTAAACAAATTTTCCTAATCTTTCTGTTCAAGCGCCATCTAC | 5.05
GATGATTGTTCTCCCAGCTGATGAATTCGACCAATCGAGTAAACAAATTTTCCTAATCTTTCTGTTCAAGCGCCATCTAC | 0.27
GATGATTGTTCTCCCAGCTGATGAATTTACACATTCGAGTAAACAAATTTTCCTAATCTTTCTGTTCAAGCGCCATCTAC | 0.808
GATGATTGTTCTCCCAGCTGATGAATTGCGGCGTTCGAGTAAACAAATTTTCCTAATCTTTCTGTTCAAGCGCCATCTAC | 1.91
GATGATTGTTCTCCCAGCTGATGAATTGTTCAACTCGAGTAAACAAATTTTCCTAATCTTTCTGTTCAAGCGCCATCTAC | 0.485
